According to article PMC11904782:
No constants are given. Whether binding was seen depends on the method and setting. For part of these data: Binding seen in cells or lysates may run through a third protein. Some binding calls cover weakened binding; strength is not graded here.

By UniProt entry, the sequences of proteins in these tests, tags left out. Where a name states a change or a piece, a line headed by the entry shows the natural chain unless it says otherwise. Chains listed by the source or under a name are the forms on record and can include a tag or linker. Residues count along the entry.
GST–ARID1A–ARID domain (981–1140 aa) (O14497, residues 981-1140): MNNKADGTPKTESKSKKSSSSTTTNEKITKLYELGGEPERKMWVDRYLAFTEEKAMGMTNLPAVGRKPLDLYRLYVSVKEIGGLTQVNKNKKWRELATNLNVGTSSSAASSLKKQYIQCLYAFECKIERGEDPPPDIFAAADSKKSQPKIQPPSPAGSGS
GST–ARID1A–C-terminal region (1634–1913 aa) (O14497, residues 1634-1913): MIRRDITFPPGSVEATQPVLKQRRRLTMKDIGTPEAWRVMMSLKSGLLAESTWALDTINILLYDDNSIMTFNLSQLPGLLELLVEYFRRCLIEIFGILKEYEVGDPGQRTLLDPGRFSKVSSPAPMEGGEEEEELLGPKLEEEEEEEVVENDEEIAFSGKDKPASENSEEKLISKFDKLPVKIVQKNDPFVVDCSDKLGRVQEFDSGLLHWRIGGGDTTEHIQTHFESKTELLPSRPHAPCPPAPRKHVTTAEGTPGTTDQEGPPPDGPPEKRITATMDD
His–ARID1A–ARM domain (1914–2285 aa) (O14497, residues 1914-2285): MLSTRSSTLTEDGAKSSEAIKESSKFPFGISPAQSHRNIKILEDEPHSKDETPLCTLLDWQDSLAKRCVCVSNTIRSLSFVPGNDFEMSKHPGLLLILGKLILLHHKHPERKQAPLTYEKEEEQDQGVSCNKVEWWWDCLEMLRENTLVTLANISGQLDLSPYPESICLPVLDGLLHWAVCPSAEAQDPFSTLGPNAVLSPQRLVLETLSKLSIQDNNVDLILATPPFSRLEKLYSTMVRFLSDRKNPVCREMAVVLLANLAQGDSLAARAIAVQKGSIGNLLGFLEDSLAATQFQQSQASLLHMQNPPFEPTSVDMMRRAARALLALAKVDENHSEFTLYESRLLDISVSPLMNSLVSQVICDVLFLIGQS
UniProt P78527: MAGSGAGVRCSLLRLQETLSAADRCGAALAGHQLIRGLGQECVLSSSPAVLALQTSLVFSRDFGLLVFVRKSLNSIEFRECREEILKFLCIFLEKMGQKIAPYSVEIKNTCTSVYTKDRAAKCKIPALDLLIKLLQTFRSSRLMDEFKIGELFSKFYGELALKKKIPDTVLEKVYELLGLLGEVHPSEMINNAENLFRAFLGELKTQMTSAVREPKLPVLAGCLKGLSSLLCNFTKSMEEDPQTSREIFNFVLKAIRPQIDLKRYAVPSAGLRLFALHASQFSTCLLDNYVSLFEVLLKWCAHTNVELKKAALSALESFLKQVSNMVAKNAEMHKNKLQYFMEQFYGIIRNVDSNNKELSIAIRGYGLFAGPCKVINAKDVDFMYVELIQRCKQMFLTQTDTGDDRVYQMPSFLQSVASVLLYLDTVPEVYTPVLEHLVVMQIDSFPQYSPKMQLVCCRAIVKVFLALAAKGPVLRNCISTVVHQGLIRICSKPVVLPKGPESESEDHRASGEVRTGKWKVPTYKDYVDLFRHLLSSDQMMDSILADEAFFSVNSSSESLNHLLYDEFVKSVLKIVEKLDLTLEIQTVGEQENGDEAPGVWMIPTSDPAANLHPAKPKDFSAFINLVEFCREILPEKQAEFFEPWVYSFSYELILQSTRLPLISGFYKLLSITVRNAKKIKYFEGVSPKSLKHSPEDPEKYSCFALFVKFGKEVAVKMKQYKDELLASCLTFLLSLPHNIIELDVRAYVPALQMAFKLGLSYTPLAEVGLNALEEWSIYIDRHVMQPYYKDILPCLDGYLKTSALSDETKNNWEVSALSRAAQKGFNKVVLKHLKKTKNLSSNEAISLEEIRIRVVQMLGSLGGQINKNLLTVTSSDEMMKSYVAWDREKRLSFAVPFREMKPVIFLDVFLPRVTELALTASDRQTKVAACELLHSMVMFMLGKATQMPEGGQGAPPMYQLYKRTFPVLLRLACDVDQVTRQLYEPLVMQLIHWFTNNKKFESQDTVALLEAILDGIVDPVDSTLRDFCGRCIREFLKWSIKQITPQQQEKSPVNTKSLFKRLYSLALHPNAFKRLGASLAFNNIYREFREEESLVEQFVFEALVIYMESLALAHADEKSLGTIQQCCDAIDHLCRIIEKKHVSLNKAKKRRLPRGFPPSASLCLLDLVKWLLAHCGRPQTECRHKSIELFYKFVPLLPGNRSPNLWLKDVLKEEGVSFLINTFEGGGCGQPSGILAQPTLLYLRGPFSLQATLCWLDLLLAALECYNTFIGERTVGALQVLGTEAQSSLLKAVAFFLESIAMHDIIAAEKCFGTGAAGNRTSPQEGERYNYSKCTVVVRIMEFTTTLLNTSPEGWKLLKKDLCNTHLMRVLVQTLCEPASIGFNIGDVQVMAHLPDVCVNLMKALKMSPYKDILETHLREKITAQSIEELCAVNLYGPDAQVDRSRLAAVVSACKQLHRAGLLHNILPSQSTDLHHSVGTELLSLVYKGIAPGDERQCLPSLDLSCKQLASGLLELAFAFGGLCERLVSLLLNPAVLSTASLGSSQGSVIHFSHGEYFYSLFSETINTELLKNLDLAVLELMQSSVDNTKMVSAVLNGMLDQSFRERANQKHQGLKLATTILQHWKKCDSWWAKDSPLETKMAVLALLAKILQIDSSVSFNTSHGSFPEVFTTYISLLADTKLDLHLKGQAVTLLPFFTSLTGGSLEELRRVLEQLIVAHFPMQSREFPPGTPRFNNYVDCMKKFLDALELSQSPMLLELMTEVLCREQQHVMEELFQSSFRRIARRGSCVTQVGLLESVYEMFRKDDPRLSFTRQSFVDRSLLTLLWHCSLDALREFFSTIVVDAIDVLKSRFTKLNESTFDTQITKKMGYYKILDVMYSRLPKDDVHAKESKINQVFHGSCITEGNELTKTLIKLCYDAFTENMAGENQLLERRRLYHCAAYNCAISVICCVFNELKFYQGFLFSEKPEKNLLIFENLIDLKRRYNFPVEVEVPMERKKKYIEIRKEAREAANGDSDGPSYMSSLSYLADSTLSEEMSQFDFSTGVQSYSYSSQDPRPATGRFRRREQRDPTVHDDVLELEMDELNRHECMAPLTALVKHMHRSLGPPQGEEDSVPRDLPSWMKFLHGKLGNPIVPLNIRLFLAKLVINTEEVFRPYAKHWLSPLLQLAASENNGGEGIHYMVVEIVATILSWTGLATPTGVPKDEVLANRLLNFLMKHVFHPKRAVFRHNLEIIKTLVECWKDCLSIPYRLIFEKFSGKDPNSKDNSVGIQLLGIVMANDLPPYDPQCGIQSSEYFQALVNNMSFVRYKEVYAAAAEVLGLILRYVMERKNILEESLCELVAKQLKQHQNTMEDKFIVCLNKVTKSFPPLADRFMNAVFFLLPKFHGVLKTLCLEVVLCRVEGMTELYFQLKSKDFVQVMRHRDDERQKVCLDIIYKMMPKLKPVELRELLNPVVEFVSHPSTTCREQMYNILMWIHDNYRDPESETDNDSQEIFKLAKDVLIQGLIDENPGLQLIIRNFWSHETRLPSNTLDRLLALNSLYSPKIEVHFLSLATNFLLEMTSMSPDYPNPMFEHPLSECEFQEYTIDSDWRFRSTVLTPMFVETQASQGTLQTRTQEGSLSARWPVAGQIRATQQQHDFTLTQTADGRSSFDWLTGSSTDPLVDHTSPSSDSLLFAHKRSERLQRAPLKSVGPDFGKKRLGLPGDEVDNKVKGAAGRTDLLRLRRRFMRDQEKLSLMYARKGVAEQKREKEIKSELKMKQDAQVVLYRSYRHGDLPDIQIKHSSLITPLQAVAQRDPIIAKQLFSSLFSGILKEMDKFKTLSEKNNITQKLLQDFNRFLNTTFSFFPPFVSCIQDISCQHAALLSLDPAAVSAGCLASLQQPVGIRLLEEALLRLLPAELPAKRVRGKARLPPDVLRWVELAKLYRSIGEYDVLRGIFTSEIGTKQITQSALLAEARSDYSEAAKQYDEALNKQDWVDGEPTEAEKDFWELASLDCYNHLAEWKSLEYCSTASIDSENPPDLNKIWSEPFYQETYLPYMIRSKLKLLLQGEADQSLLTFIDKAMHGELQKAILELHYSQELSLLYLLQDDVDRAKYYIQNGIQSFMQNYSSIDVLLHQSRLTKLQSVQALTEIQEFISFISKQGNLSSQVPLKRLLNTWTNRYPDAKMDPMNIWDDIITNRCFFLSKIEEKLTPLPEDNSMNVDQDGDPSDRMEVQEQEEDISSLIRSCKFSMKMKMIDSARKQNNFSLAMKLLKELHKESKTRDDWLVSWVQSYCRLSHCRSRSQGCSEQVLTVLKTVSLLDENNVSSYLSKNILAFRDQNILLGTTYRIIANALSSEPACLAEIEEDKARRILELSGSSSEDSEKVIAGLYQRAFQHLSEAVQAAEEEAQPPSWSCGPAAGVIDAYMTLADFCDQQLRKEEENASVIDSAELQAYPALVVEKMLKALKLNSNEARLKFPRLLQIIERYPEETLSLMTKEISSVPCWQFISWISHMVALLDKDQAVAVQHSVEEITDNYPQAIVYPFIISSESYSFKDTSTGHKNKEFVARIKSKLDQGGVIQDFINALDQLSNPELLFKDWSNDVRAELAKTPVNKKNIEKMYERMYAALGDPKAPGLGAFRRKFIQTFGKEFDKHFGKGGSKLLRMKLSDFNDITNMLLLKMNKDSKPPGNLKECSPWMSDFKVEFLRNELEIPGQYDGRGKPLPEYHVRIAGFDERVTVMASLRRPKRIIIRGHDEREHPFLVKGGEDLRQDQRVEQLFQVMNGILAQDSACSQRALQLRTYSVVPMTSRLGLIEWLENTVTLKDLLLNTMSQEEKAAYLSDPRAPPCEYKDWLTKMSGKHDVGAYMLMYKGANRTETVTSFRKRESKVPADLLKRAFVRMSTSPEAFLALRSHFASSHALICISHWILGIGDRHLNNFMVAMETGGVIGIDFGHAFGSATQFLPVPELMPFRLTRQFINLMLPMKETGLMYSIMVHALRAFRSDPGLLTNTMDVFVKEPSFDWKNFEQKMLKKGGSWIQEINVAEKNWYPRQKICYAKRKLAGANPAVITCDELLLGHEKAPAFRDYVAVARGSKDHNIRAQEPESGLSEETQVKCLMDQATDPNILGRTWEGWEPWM
GST–DNA–PKcs ARID1A-binding region (3615–3660 aa), F3640A mutant (P78527, form named): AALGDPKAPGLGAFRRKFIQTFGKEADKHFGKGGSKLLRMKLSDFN

How the values were obtained:
[1] = target: ARID1B, endogenous (human (endogenous in HEK293)) (UniProt Q8NFD5); experiment: co-IP; endogenous ARID1A or ARID1B immunoprecipitated with anti-ARID1A or anti-ARID1B from HEK293 nuclear extract; partners by immunoblot
[2] = target: GST–ARID1A–ARID domain (981–1140 aa) (UniProt O14497); experiment: pull-down; GST–ARID1A mutants or GST–ARID1B–ARM on Glutathione Sepharose beads incubated with HEK293 (methods: 293T) nuclear extract for 4 h at 4°C with RNase A and DNase I; bound proteins by immunoblot; only the target purified
[3] = target: GST–ARID1A–ARM domain (1914–2285 aa) (UniProt O14497); experiment: as above
[4] = target: GST–ARID1A–C-terminal region (1634–1913 aa) (UniProt O14497); experiment: as above
[5] = target: GST–DNA–PKcs ARID1A-binding region (3615–3660 aa), F3640A mutant (UniProt P78527); experiment: far-Western, overlay or dot blot; GST-fusion proteins separated by SDS–PAGE, transferred to PVDF, renatured through falling guanidine–HCl, incubated with His–ARID1A–ARM overnight at 4°C, probed with anti-His-tag antibody; both purified

binding [1] | binding [2] | binding [3] | binding [4] | binding [5] | Substance
binds | binds weakly | binds | binds weakly | – | DNA-dependent protein kinase catalytic subunit (DNA-PKcs), endogenous wild type (from UniProt P78527 1-4128)
– | – | – | – | no binding | His–ARID1A–ARM domain (1914–2285 aa) (from UniProt O14497 1914-2285) (domain or fragment)
– | binds | – | – | – | VIRMA (from UniProt Q69YN4 1-1812)
